Our source for the binding values is paper PMC5520057, “Modulation of nongenomic activation of PI3K signalling by tetramerization of N-terminally-cleaved RXRα” (Nature Communications, 2017).

By UniProt entry, the sequences of proteins in these tests, tags left out. Where a name states a change or a piece, a line headed by the entry shows the natural chain unless it says otherwise. Residues count along the entry.
UniProt P27986: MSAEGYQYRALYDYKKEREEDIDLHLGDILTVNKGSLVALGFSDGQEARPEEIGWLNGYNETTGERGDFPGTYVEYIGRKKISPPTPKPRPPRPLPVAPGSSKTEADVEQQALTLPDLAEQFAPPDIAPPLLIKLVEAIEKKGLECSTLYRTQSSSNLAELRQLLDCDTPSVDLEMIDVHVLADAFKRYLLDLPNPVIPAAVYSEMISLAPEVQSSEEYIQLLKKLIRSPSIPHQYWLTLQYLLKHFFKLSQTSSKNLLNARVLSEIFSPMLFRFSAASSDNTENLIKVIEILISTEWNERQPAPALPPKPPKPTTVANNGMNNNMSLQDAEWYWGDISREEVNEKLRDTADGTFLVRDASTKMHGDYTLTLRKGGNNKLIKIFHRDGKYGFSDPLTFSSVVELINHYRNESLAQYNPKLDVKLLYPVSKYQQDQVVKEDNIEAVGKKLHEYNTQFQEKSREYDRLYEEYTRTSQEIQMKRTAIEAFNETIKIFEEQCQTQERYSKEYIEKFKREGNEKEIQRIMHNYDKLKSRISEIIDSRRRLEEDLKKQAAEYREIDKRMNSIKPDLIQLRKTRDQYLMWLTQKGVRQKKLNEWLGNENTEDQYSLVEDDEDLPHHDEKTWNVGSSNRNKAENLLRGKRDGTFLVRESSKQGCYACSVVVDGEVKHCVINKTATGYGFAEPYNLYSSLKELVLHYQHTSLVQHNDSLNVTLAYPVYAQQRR
HA-p85α-BCR: residues 105-319 of P27986

In one assay the target is Myc-tRXRα/F313A (human) (UniProt P19793). The assay is described as follows: co-IP; transfected cells (HEK293T; HepG2 for Fig. 3e; A549 for Fig. 4h), with or without 9-cis-RA (10^-7 M), TNFα (10 ng/ml) or K-80003 (5 x 10^-6 M); lysis in 20 mM Tris pH 7.5, 150 mM NaCl, 1% Triton X-100; antibody 12 h at 4 °C, protein A-Sepharose, immunoblot.
For another assay, the target named is Myc-tRXRα/R316E (human) (UniProt P19793). The assay is described as above.
The target of assay [1] is Myc-tRXRα (human) (UniProt P19793). Described as above.
The target is the same in assay [2]. The assay is described as follows: cross-linking; cells (HepG2, HEK293T, MCF-7) transfected for 24 h, treated with 9-cis-RA (10^-7 M) and/or K-80003 (5 x 10^-6 M) for 6 h; lysates or fractions incubated with 1 mM BS3, SDS-PAGE and western blotting.
The next assay deals with HA-p85α-BCR (UniProt P27986). Put plainly: co-IP; transfected cells (HEK293T; HepG2 for Fig. 3e; A549 for Fig. 4h), with or without 9-cis-RA (10^-7 M), TNFα (10 ng/ml) or K-80003 (5 x 10^-6 M); lysis in 20 mM Tris pH 7.5, 150 mM NaCl, 1% Triton X-100; antibody 12 h at 4 °C, protein A-Sepharose, immunoblot.

These are yes or no findings as the source states them, for the method shown. Binding seen in cells or lysates may run through a third protein. Some entries that bind do so weakly or less than the wild type.

In the case of HA-p85α (from UniProt P27986 1-724), the binding result with Myc-tRXRα/F313A (human) is recorded as “binds”; in the assay with Myc-tRXRα/R316E (human) it was “no binding”; in the assay with Myc-tRXRα (human) [1], “binds”.

B1: Myc-tRXRα (domain or fragment, human, UniProt P19793 81-462, looked up)
chain: TTPTLGFSTGSPQLSSPMNPVSSSEDIKPPLGLNGVLKVPAHPSGNMASFTKHICAICGDRSSGKHYGVYSCEGCKGFFKRTVRKDLTYTCRDNKDCLIDKRQRNRCQYCRYQKCLAMGMKREAVQEERQRGKDRNENEVESTSSANEDMPVERILEAELAVEPKTETYVEANMGLNPSSPNDPVTNICQAADKQLFTLVEWAKRIPHFSELPLDDQVILLRAGWNELLIASFSHRSIAVKDGILLATGLHVHRNSAHSAGVGAIFDRVLTELVSKMRDMQMDKTELGCLRAIVLFNPDSKGLSNPAEVEALREKVYASLEAYCKHKYPEQPGRFAKLLLRLPALRSIGLKCLEHLFFFKLIGDTPIDTFLMEMLEAPHQMT
notes: retinoid X receptor alpha lacking the N-terminal 80 amino acids (deletion of 60 plus an additional 20 amino acids); also called truncated RXRα; N-terminally-cleaved RXRα; source: HEK293T, HepG2, transfected, in lysate
With B1, the binding entry in the assay with Myc-tRXRα (human) [2] and with HA-p85α-BCR was “binds” each time.
